# Assay results from the supplement of paper PMC8728848.
# The list shows a part of the results.
# B1: SP16664D-bth-476-27-476 (Bacteroides thetaiotaomicron) (protein)
# chain: DDLEVGKNIDESAYSGIYENNAYLRDGKSNLVSKVVELHGETYATTVKMGLSKTPNTATSAKVKIDAAYLETYNKAHNTDFALYPQDLVTFANEGILTVNANTKSAEVEMTIRAGEGLQEDKTYAIPVAISDQSSDITIKDEDAKHCIYLVKDMRNAGDAYKGEGVMQGYLFFEVNDVNPLNTLSFQLENGKLLWDVVVLFAANINYDAEAGRPRVQCNPNVQYLLDNNETLLQPLRRRGVKVLLGLLGNHDITGLAQLSEQGAKDFAREVAQYCKAYNLDGVNYDDEYSNSPDLSNPSLTNPSTAAAARLCYETKQAMPDKLVTVFDWGQMYGVATVDGVDAKEWIDIVVANYGSAAYPIGQMTKKQCSGISMEFNLGGGGSLSASKAQSMIDGGYGWFMGFAPSPAKYGSVFSRLQGGGEVLYGSNVAAPTIFYKKNDPTPYKYPDDL
# How the values were obtained:
# Assay in all cases: glycan array binding signal (z-score within array); higher = stronger binding
# Settings in all cases: glycan notation: IUPAC condensed, linker removed
# [1] = biological target: Gal(b1-3)GalNAc(b1-3)Gal(a1-4)Gal(b1-4)Glc
# Method in brief: (§1)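 Arrays were curated from the Consortium for Functional Glycomics database, 3228 in total, and kept only where the protein sequence was available. Binding is expressed as a within-array Z-score. This score was averaged across arrays of the same protein sequence at different concentrations or buffers and across linkers, and negative values can be read as non-binding.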
# [2] = biological target: Gal(b1-3)GalNAc(b1-4)Gal(b1-4)Glc
# Method in brief: as §1
# [3] = biological target: Gal(b1-3)GalNAc(b1-4)[Neu5Ac(a2-3)]Gal(b1-4)Glc
# Method in brief: as §1
# Gal(b1-3)GlcNAc = biological target: Gal(b1-3)GlcNAc
# Method in brief: as §1
# [4] = biological target: Gal(b1-3)GlcNAc(a1-3)Gal(b1-4)GlcNAc
# Method in brief: as §1
# [5] = biological target: Gal(b1-3)GlcNAc(a1-6)Gal(b1-4)GlcNAc
# Method in brief: as §1
# Gal(b1-3)GlcNAc(b1-2)Man = biological target: Gal(b1-3)GlcNAc(b1-2)Man
# Method in brief: as §1
# [6] = biological target: Gal(b1-3)GlcNAc(b1-2)Man(a1-3)[Gal(b1-3)GlcNAc(b1-2)Man(a1-6)]Man(b1-4)GlcNAc(b1-4)GlcNAc
# Method in brief: as §1
# [7] = biological target: Gal(b1-3)GlcNAc(b1-2)Man(a1-3)[Gal(b1-3)GlcNAc(b1-2)Man(a1-6)]Man(b1-4)GlcNAc(b1-4)[Fuc(a1-6)]GlcNAc
# Method in brief: as §1
# [8] = biological target: Gal(b1-3)GlcNAc(b1-2)Man(a1-3)[GlcNAc(b1-4)][Gal(b1-3)GlcNAc(b1-2)Man(a1-6)]Man(b1-4)GlcNAc(b1-4)GlcNAc
# Method in brief: as §1
# [9] = biological target: Gal(b1-3)GlcNAc(b1-2)[Gal(b1-3)GlcNAc(b1-6)]Man(a1-6)[Gal(b1-3)GlcNAc(b1-2)Man(a1-3)]Man(b1-4)GlcNAc(b1-4)GlcNAc
# Method in brief: as §1
# [10] = biological target: Gal(b1-3)GlcNAc(b1-3)Gal(b1-3)GlcNAc
# Method in brief: as §1
# [11] = biological target: Gal(b1-3)GlcNAc(b1-3)Gal(b1-4)Glc
# Method in brief: as §1
# [12] = biological target: Gal(b1-3)GlcNAc(b1-3)Gal(b1-4)GlcNAc
# Method in brief: as §1
# [13] = biological target: Gal(b1-3)GlcNAc(b1-3)Gal(b1-4)GlcNAc(b1-2)Man(a1-3)[Gal(b1-3)GlcNAc(b1-3)Gal(b1-4)GlcNAc(b1-2)Man(a1-6)]Man(b1-4)GlcNAc(b1-4)GlcNAc
# Method in brief: as §1
# [14] = biological target: Gal(b1-3)GlcNAc(b1-3)Gal(b1-4)GlcNAc(b1-2)[Gal(b1-3)GlcNAc(b1-3)Gal(b1-4)GlcNAc(b1-6)]Man(a1-6)[Gal(b1-3)GlcNAc(b1-3)Gal(b1-4)GlcNAc(b1-2)Man(a1-3)]Man(b1-4)GlcNAc(b1-4)[Fuc(a1-6)]GlcNAc
# Method in brief: as §1
# [15] = biological target: Gal(b1-3)GlcNAc(b1-3)Gal(b1-4)GlcNAc(b1-3)Gal(b1-4)GlcNAc(b1-2)[Gal(b1-3)GlcNAc(b1-3)Gal(b1-4)GlcNAc(b1-3)Gal(b1-4)GlcNAc(b1-6)]Man(a1-6)[Gal(b1-3)GlcNAc(b1-3)Gal(b1-4)GlcNAc(b1-3)Gal(b1-4)GlcNAc(b1-2)Man(a1-3)]Man(b1-4)GlcNAc(b1-4)[Fuc(a1-6)]GlcNAc
# Method in brief: as §1
# [16] = biological target: Gal(b1-3)GlcNAc(b1-3)Gal(b1-4)GlcNAc(b1-6)[Gal(b1-3)GlcNAc(b1-3)]Gal(b1-4)Glc
# Method in brief: as §1
# [17] = biological target: Gal(b1-3)GlcNAc(b1-3)Gal(b1-4)[Fuc(a1-3)]GlcNAc
# Method in brief: as §1
# [18] = biological target: Gal(b1-3)GlcNAc(b1-3)Gal(b1-4)[Fuc(a1-3)]GlcNAc(b1-6)[Gal(b1-3)GlcNAc(b1-3)]Gal(b1-4)Glc
# Method in brief: as §1
# [19] = biological target: Gal(b1-3)GlcNAc(b1-3)GalNAc
# Method in brief: as §1
# [20] = biological target: Gal(b1-3)GlcNAc(b1-6)Gal(b1-4)GlcNAc
# Method in brief: as §1
# [21] = biological target: Gal(b1-3)GlcNAc(b1-6)GalNAc
# Method in brief: as §1
# [22] = biological target: Gal(b1-3)GlcNAc(b1-6)[Gal(b1-3)]GalNAc
# Method in brief: as §1
# Gal(b1-3)GlcNAc6S = biological target: Gal(b1-3)GlcNAc6S
# Method in brief: as §1
# [23] = biological target: Gal(b1-3)[Fuc(a1-4)]GlcNAc
# Method in brief: as §1
# [24] = biological target: Gal(b1-3)[Fuc(a1-4)]GlcNAc(b1-2)Man
# Method in brief: as §1
# [25] = biological target: Gal(b1-3)[Fuc(a1-4)]GlcNAc(b1-2)Man(a1-3)[Gal(b1-3)[Fuc(a1-4)]GlcNAc(b1-2)Man(a1-6)]Man(b1-4)GlcNAc(b1-4)[Fuc(a1-6)]GlcNAc
# Method in brief: as §1
# [26] = biological target: Gal(b1-3)[Fuc(a1-4)]GlcNAc(b1-3)Gal(b1-3)[Fuc(a1-4)]GlcNAc
# Method in brief: as §1
# [27] = biological target: Gal(b1-3)[Fuc(a1-4)]GlcNAc(b1-3)Gal(b1-4)[Fuc(a1-3)]GlcNAc
# Method in brief: as §1
# [28] = biological target: Gal(b1-3)[Fuc(a1-4)]GlcNAc(b1-6)GalNAc
# Method in brief: as §1
# [29] = biological target: Gal(b1-3)[GlcNAc(b1-6)]GalNAc
# Method in brief: as §1
# [30] = biological target: Gal(b1-3)[Neu5Ac(a2-6)]GalNAc
# Method in brief: as §1
# [31] = biological target: Gal(b1-3)[Neu5Ac(a2-6)]GlcNAc(b1-4)Gal(b1-4)Glc
# Method in brief: as §1
# [32] = biological target: Gal(b1-3)[Neu5Ac(b2-6)]GalNAc
# Method in brief: as §1
# Gal(b1-4)Gal = biological target: Gal(b1-4)Gal
# Method in brief: as §1
# [33] = biological target: Gal(b1-4)GalNAc(a1-3)[Fuc(a1-2)]Gal(b1-4)GlcNAc
# Method in brief: as §1
# [34] = biological target: Gal(b1-4)GalNAc(b1-3)[Fuc(a1-2)]Gal(b1-4)GlcNAc
# Method in brief: as §1
binder,measurement,setting,value
B1,glycan array binding signal (z-score),[1],-0.006
same,glycan array binding signal (z-score),[2],-0.029
same,glycan array binding signal (z-score),[3],0.156
same,glycan array binding signal (z-score),Gal(b1-3)GlcNAc,-0.121
same,glycan array binding signal (z-score),[4],-0.271
same,glycan array binding signal (z-score),[5],-0.097
same,glycan array binding signal (z-score),Gal(b1-3)GlcNAc(b1-2)Man,-0.256
same,glycan array binding signal (z-score),[6],0.116
same,glycan array binding signal (z-score),[7],-0.29
same,glycan array binding signal (z-score),[8],0.229
same,glycan array binding signal (z-score),[9],-0.162
same,glycan array binding signal (z-score),[10],0.152
same,glycan array binding signal (z-score),[11],-0.236
same,glycan array binding signal (z-score),[12],-0.078
same,glycan array binding signal (z-score),[13],-0.094
same,glycan array binding signal (z-score),[14],-0.162
same,glycan array binding signal (z-score),[15],0.144
same,glycan array binding signal (z-score),[16],-0.214
same,glycan array binding signal (z-score),[17],-0.207
same,glycan array binding signal (z-score),[18],-0.153
same,glycan array binding signal (z-score),[19],0.061
same,glycan array binding signal (z-score),[20],-0.253
same,glycan array binding signal (z-score),[21],-0.211
same,glycan array binding signal (z-score),[22],-0.035
same,glycan array binding signal (z-score),Gal(b1-3)GlcNAc6S,0.041
same,glycan array binding signal (z-score),[23],-0.135
same,glycan array binding signal (z-score),[24],0.176
same,glycan array binding signal (z-score),[25],0.054
same,glycan array binding signal (z-score),[26],1.49
same,glycan array binding signal (z-score),[27],-0.036
same,glycan array binding signal (z-score),[28],0.357
same,glycan array binding signal (z-score),[29],-0.12
same,glycan array binding signal (z-score),[30],-0.04
same,glycan array binding signal (z-score),[31],-0.191
same,glycan array binding signal (z-score),[32],-0.137
same,glycan array binding signal (z-score),Gal(b1-4)Gal,-0.161
same,glycan array binding signal (z-score),[33],-0.253
same,glycan array binding signal (z-score),[34],-0.183
